Measured values taken from article PMC4814048.
These are yes or no findings as the source states them, for the method shown. For some assays here: In cells and extracts the contact can be indirect. Some binding calls cover weakened binding; strength is not graded here. Where a sequence is shown, tags or fusion partners need not be part of it. Each block holds one binder with its values, some of them ahead of it.

What was measured:
[1] = target: T1, MexAM1_META2p0735 (putative NepR homologue), bacterial two-hybrid fusion (Methylobacterium extorquens AM1) (UniProt C5B547); experiment: two-hybrid; bacterial two-hybrid in E. coli BTH101; nepR paralogues in pUT18, ecfG paralogues in pKNT25; LB with 1 mM IPTG and 40 μg/ml X-Gal, blue coloration after two days at 28°C; β-galactosidase activity of overnight liquid cultures
T1 sequence: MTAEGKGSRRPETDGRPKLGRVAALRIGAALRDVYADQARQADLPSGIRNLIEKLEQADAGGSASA

[2] = target: T2, MexAM1_META1p2700 (putative NepR homologue), bacterial two-hybrid fusion (Methylobacterium extorquens AM1) (UniProt C5ATE1); experiment: as above
T2 sequence: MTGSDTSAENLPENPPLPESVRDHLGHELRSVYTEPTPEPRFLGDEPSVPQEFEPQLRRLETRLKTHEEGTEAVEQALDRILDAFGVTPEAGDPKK

[3] = target: T3, MexAM1_META1p1275 (putative NepR homologue), bacterial two-hybrid fusion (Methylobacterium extorquens AM1) (UniProt C5AYM3); experiment: as above
T3 sequence: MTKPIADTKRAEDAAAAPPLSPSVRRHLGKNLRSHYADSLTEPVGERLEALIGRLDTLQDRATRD

[4] = target: T4, NepR, bacterial two-hybrid fusion (Methylobacterium extorquens AM1) (UniProt C5AW20); experiment: as above
T4 sequence: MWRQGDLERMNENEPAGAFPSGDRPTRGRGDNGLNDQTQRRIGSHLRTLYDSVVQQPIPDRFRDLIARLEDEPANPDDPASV

[5] = target: T5, MexAM1_META1p2700, C-terminal triple FLAG-tagged (Methylobacterium extorquens AM1) (UniProt C5ATE1); experiment: co-IP; lysate of M. extorquens AM1 producing C-terminal triple FLAG-tagged NepR or paralogue, in TBS (50 mM Tris-HCl pH 7.4, 150 mM NaCl); anti-FLAG M2 affinity gel, 1 h at room temperature; blot with anti-PhyR serum
T5 sequence: T2 sequence

[6] = target: T6, NepR, C-terminal triple FLAG-tagged (Methylobacterium extorquens AM1) (UniProt C5AW20); experiment: as above
T6 sequence: T4 sequence

[7] = target: T7, MexAM1_META2p0735, C-terminal triple FLAG-tagged (Methylobacterium extorquens AM1) (UniProt C5B547); experiment: as above
T7 sequence: T1 sequence

[8] = target: T8, MexAM1_META1p1275, C-terminal triple FLAG-tagged (Methylobacterium extorquens AM1) (UniProt C5AYM3); experiment: as above
T8 sequence: T3 sequence

binding [1]: no binding
binding [2]: no binding
binding [3]: no binding
binding [4]: no binding
B1: σ^EcfG1, full-length (FL), bacterial two-hybrid fusion (protein, UniProt C5ASQ2 1-244)
chain: MRNDTEATLDRPAMTDGRPKLSDSIRSHLGDHLRSVYDTLGAGEDTPSRFSELIGKLEAALKAQGERIDPEFRNGLLSAVPSLRAFALSLTSNPARSDDLVQDTLLKGWQHRARFQPGTNLNAWLFTILRNIFYSDHRKRVREVEDQDGSYAARLATAPHQGDRLDVEDLQTALAKLPPDQREALVLVGAEGVSYEEAATIMGCKVGTVKSRVSRARGRLAELLGYDEEDLSSDRLIQSAMPDA

binding [5]: no binding
binding [6]: binds
binding [7]: binds
binding [8]: binds
B2: PhyR (protein, UniProt Q0PEV3 1-267)
chain: MSTAQLVVQHLPYLRRYARALTGSQVAGDAYVAATLETLVNEPETLGRSTNVKADLFRVFTRIWNSLSVNGHSDQVQHDLPAEVRLGQITPLPRQAFLLSCLEGFSEEDAGVILDVDVSKVRDLVDEAGRELAADMATEILIIEDEPLIAMDLEALVEGLGHNVIGVARTRTEAVKIASESKRPGLILADIQLADGSSGLDAVNDLLKTFEVPVIFITAYPERFLTGERPEPAFLIAKPFQPANVSAVISQALFFQQSARRREAHNA
